Measured values published in PubChem BioAssay AID488969 (Vanderbilt High Throughput Screening Facility, 2010).
Over roughly 110,000 compounds, “z-score” has its median near -0.1; the highest 2% begin near 2. Some of the results follow. Active and inactive are the calls of the source.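 How the source made its calls: active means z-score in the third read window above 3 or below -3; inactive means the rest.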

Target: Metabotropic glutamate receptor 8 (Rattus norvegicus) (UniProt P70579)
Assay: mGluR8 Gi/Go-coupled signaling modulation – cell-based, rat, thallium flux, HTS, primary screen (AID 488969)
Conditions: HEK293 rat mGluR8, GIRK (G protein-gated inwardly rectifying potassium channel) thallium flux, FluoZin2; at 10 µM; stronger effect = higher value; submaximal glutamate (EC20) added with thallium

Sequence of UniProt P70579 (P70579 whole entry, looked up): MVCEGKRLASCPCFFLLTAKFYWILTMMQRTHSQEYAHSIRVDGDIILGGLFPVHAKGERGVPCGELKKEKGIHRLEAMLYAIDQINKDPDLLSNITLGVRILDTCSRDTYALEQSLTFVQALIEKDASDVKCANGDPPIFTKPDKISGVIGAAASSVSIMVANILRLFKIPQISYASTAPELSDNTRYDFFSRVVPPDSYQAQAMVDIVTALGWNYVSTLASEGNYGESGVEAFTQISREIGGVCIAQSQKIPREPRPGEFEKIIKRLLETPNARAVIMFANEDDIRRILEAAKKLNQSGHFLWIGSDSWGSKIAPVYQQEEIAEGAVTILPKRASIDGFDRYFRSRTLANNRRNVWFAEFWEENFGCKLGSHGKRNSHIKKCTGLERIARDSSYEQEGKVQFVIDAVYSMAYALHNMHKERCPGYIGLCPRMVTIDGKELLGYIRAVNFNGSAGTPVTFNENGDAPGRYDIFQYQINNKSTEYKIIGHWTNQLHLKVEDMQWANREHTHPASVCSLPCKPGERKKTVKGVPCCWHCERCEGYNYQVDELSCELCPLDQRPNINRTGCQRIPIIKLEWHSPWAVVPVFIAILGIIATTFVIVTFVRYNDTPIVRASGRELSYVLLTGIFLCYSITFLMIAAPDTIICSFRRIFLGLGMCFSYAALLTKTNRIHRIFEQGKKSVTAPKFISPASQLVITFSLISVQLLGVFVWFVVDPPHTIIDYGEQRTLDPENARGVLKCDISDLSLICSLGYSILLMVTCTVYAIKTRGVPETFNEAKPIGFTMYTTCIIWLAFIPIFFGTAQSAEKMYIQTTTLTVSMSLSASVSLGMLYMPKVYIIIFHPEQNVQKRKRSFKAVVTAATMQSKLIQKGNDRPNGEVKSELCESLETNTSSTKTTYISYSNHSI

Compound | z-score
CCNc1ccc(C(=O)OCC)cc1NC(=O)c1cccc(N(C)C)c1 | 0.628
O=[N+]([O-])c1ccccc1/C=N/N1CCN(c2ccccn2)CC1 | 0.0626
Cc1cccc(C)c1OCc1nnc(SCC(=O)Nc2nccs2)o1 | 0.503
C/C(=N\NC(=S)Nc1cccc(C)c1)c1cccc(N)c1 | active: 3.42
c1ccc(-n2ncc3c(NCc4ccco4)ncnc32)cc1 | -0.23
COc1ccc(CNC(=O)COC(=O)CC2CC3CCC2C3)cc1OC (configuration not stated) | -0.113
O=C(c1cnc2sccn2c1=O)N1CCc2ccccc2C1 | -0.156
COc1ccc(/C=N/c2c(-c3ccc(OC)cc3)nc3n2CCS3)cc1 | 0.116
C=CCNC(=O)c1onc(CSc2ccc(C(C)C)cc2)c1C(=O)O | -0.328
Cc1n[nH]c(C)c1S(=O)(=O)N1CCOCC1 | -0.233
Cc1nc2cccc(C(=O)NC3CCCCC3)c2o1 | -0.186
O=C(CCN1CCCCCC1)c1ccccc1 | 0.0945
COc1ccc(-n2c(=S)[nH]c3cc(C(=O)Nc4ccccc4OC)ccc3c2=O)cc1 | -0.173
O=c1c(S(=O)(=O)c2ccc(Cl)cc2)cn(Cc2cccc(F)c2)c2ccc(F)cc12 | -0.35
Cc1cccc(-n2c(Cc3ccccc3)nnc2SCC(=O)N2CCOCC2)c1 | -0.629
O=C(Nc1ccc(Br)cc1F)c1sccc1-n1cccc1 | -0.118
COCC(C)NC(C(=O)Nc1ccc(Cl)c([N+](=O)[O-])c1)c1ccccc1 (configuration not stated) | -0.243
CCOC(=O)CCCn1nc(C)n2c(cc3sccc32)c1=O | 0.215
CCC(=O)NC(Nc1sc2c(c1C(=O)OC)CCN(C)C2)(C(F)(F)F)C(F)(F)F | 0.38
O=C(Nc1nc2nc(-c3ccccc3)cc(=O)n2[nH]1)c1ccccc1 | -0.0872
Oc1ccccc1-c1nnc(SCCN2CCOCC2)n1Cc1ccccc1 | 0.562
CCc1nnc(NC(=O)CSc2nc3cccnc3n2Cc2ccccc2)s1 | -0.658
O=C(CCN1C(=O)c2ccc([N+](=O)[O-])cc2C1=O)Nc1cccc(O)c1 | 0.128
CCN(c1cccc(C(F)(F)F)c1)S(=O)(=O)c1ccc2c(c1)CCN2C(=O)C1CC1 | 0.506

Compound | z-score
O=C(CC1CC2CCC1C2)OCC(=O)c1c[nH]c2ccccc12 (configuration not stated) | 0.111
CCN(CC)CCCN1C(=O)c2oc3ccccc3c(=O)c2C1c1cc(OC)ccc1OC (configuration not stated) | 0.517
COc1ccc(N2CCN(C(=O)C3COc4ccccc4O3)CC2)cc1 (configuration not stated) | -0.0793
CCOc1ccccc1-c1nc(-c2cccc(Br)c2)no1 | -0.613
COc1ccc(C(CCN(Cc2ccc(OC)c(OC)c2)C(=O)CCl)c2ccccc2)cc1 (configuration not stated) | -2.14
COCC(=O)Nc1ccccc1NC(C)=O | -0.363
O=S(=O)(Nc1ccc(S(=O)(=O)N2CCCCC2)cc1)c1cccs1 | 0.205
CCCCNC(=O)c1cn(-c2ccc(OCC)cc2)c(=O)c2cc(OC)c(OC)cc12 | -1.02
COc1ccc(NC(=S)NNC(=O)OC(C)(C)C)cc1OC | -0.422
Cc1ccc2nc(NC(=O)C3CCN(S(=O)(=O)c4cccc5nsnc45)CC3)sc2c1 | 0.00727
O=C(O)CCc1ccc(S(=O)(=O)N2CCOCC2)cc1 | 0.0366
CCOC(=O)C1CCN(Cc2nc3ccc(Cl)cc3n2CCO)CC1 | -0.102
CN(C)/C=N/c1ncnc2c1cnn2-c1ccc(C(F)(F)F)cn1 | 0.77
CC(Oc1ccc(-c2nccc(-c3ccccn3)n2)cc1)C(=O)NN (configuration not stated) | -0.32
O=C(O)c1ccccc1C(=O)N1CCN(c2cccc(Cl)c2)CC1 | 0.309
Cc1cccc(C)c1OCC(O)Cn1ccnc1C (configuration not stated) | -0.38
Cc1ccc(-n2c(Cn3cnc4ccccc43)nnc2SCC(=O)O)cc1 | -0.0769
COc1ccc(S(=O)(=O)NCCCN2CCOCC2)c2ccccc12 | 0.707
CC1(C)CC(=O)c2c(O)cc(OCc3ccc(Br)cc3)cc2O1 | 0.0488
Cc1ccc2nc(NC(=O)C3CCN(S(=O)(=O)c4ccc5c(c4)oc(=O)n5C)CC3)sc2c1 | 0.227
Cc1ccc(-c2noc(CN3CCCCC3)n2)cc1 | -0.376
Cc1ccc(NC(=O)/C(C#N)=C/c2cccs2)c(C)c1 | 0.0553
CC(=O)Nc1ccccc1OC(=O)N1CCOCC1 | -0.392
Cc1nn2c(CN(C(=O)c3ccco3)c3ccccc3)nnc2c2ccccc12 | 0.0668

Compound | z-score
Cc1ccc(NC(=S)NCCc2c[nH]c3ccccc23)cc1 | -0.0822
O=C(COC(=O)CCSc1ccc(Cl)cc1)NCc1ccc(Cl)cc1 | 0.261
Cn1c(COc2ccccc2)nnc1SCc1cc(=O)[nH]c2ccccc12 | 0.653
COc1cccc(N2CCN(CC(=O)NCc3cccs3)CC2)c1 | -0.23
O=C(Nc1ccccc1-c1nnc(SCc2ccccc2)o1)c1ccccc1 | -0.364
Cc1ccc(-c2cc(C(=O)N3CCCc4ccccc43)c3ccccc3n2)cc1 | -0.22
CNC(=O)C1CC(=O)N(c2ccc(C)cc2)C1 (configuration not stated) | 0.338
CCCCOc1ccc(C(=O)NNC(=S)NC(=O)CC)cc1 | active: 4.28
COc1cccc(Nc2ccc(Nc3cccc(OC)c3)nn2)c1 | 0.309
Cc1cc2ncn(N)c2cc1C | -0.221
FC(F)(F)c1nnc(-c2ccccc2)nc1Sc1ccccc1 | 0.0829
CCCc1nc2ccc(NC(=O)c3ccco3)cc2c(=O)n1Cc1ccccc1Cl | 0.0821
Cn1c(=NC(=O)CSCC(=O)N2CCCC2)sc2ccccc21 | 1.64
Cc1ccc(/C=N/NC(=O)c2csc(C)c2)o1 | -0.19
C/C(=N/Nc1ccc(F)cc1)c1ccc(Cl)s1 | 0.13
COC(=O)c1sccc1-c1ccc(C(=O)Nc2cccc(Cl)c2)o1 | -0.119
COC(=O)c1c(NC(=O)c2cccnc2)sc(C)c1C | 0.175
Cc1cc(=O)oc2cc(OCC(=O)NCc3ccco3)ccc12 | 0.949
CCOC(=O)C1CCN(C(=O)c2ccc(SC)cc2OC)CC1 | -0.371
Cc1cccn2c(=O)c3cc(C(=O)NCc4cccnc4)c(=N)n(C(C)C)c3nc12 | -0.268
Cc1ccc(C)c(C(=O)CSc2n[nH]c(-c3ccncc3)n2)c1 | 0.166
Cc1ccc(-n2c(CSc3nc(C)cc(C)n3)nnc2SCC(=O)NCc2ccco2)cc1 | active: 8.78
CCn1cc([N+](=O)[O-])c(C(=O)Nc2ccc(Br)cn2)n1 | -0.795
COc1ccc(-n2c(=O)c3ccccc3n(CC(=O)Nc3cc(C)on3)c2=O)cc1OC | -0.958
